Measurements taken from the RNAGym collection of RNA variant scans (doi:10.1073/pnas.2313332121).
Variants at the background level are over-represented here.

B1: TPR 5TU (parent)
chain: GGAUCUUCUCGAUCUAACAAAAAAGACAAAUCUGCCACAAAGCUUGAGAGCAUCUUCGGAUGCAGAGGCGGCAGCCUUCGGUGGCGCGAUAGCGCCAACGUUCUCAACUAUGACACGCAAAACGCGUGCUCCGUUGAAUGGAGUUUAUCAUG

Variants of: B1
Assay: polymerase ribozyme fitness, log enrichment relative to wild type (log ratio); higher = more active; in vitro selection for triplet polymerase activity
How it was run: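 Fitness is a logarithmic measure of how a genotype enriched relative to the wild type, with replicate averages weighted by inverse variance. The logarithm uses base 2, and enrichment came from Illumina sequencing of input and output libraries. Those libraries were PCR-built, transcribed mutants of each subunit of a heterodimeric triplet polymerase ribozyme, passed through one triplicate in vitro selection round that included frozen incubation at −7 °C, gel excision of extended constructs and streptavidin-bead capture. Genotypes were kept only if they had ≥10 input reads and ≥1 read per output.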

Variant | polymerase ribozyme fitness (log ratio)
GGAUCUUCUCGAUCUAACAAAAAAGACAAAUCUGCCACAAAGCUUGAGAGCAUCUUCCGAUGCAGAGGCGACAGCCUUCGGUGGCGCGAUAGCGCCAACGUUCUCAACUAUGACACGCAAAACGCGUGCUCCAUUGAAUGGAGUUUAGCAUG [G58C G71A G133A U148G] | ≤ -4.2
GGAUCUUCUCGAUCUAACAAAAAAGACAAAUCUGCCACAAAGCUUGAGAGCAUCUUCUGAUGCAGAGGCGGCAGCAUUCGGUGGCGCGAUAGCGCCAACGUUCUCAACUAUGACACGCAAAACGCGUGCUCCGUUGAAUGGAGUUUAUCAUG [G58U C76A] | 0.0806
GGAUCUUCUCGAUCUAACAAAAAAGACAAAUCUGCCACAAAGCUUGAGAGCAUCUUCUGAUGCAGAGGCGGCAGCCUUCGGUGGCGCGAUAGCGCCAACGUUGUCAACUAUGACACGCAAAACGCGUGCUCUGUUGAAUGGUGUUUAUCAUG [G58U C103G C132U A142U] | ≤ -4.2
GGAUCUUCUCGAUCUAACAAAAAAGACAAAUCUGCCACAAAGCUUGAGAGCAUCUUCCGAUGCAGAGGCGGCAGCCUUCGGUAGCGCGAUAGUGCCAACGUUCUCAACUAUGACACGCAAAACGCGUGCUCCGUUGAAUGGAGUUUAUCAUG [G58C G83A C93U] | -2.03
GGAUCUUCUCGAUCUAACAAAAAAGACAAAUCUGCCACAAAGCUUGAGAGCAUCUUCCGAUGCAGAGGCGGCAGCCUUCGGUAGCGCGAUAGCGCCAACGUUCUCAACUAUGACAUGCAAAACGCGUGCUCCGUUGAAUGGAGUUUAACAUG [G58C G83A C116U U148A] | ≤ -4.2
GGAUCUUCUCGAUCUAACAAAAAAGACAAAUCUGCCACAAAGCUUGAGAGCAUCUUCCGAUGCAGAGGCGGCAGCCUUCAGUGUCGCGAUAGCGCCAACGUUCUCAACUAUGACACGCACAACGCGUGCUCCGUUGAAUGGAGUUUAUCAUC [G58C G80A G84U A120C G152C] | ≤ -4.2
GGAUCUUCUCGAUCUAACAAAAAAGACAAAUCUGCCACAAAGCUUGAGAGCAUCUUCUGGUGCAGAGGCGGCAGCCUUCGGUGGCGCGAUAGCGCCAACGUUCUCAACUAUGACACGCAAAACGCGUGCUCCGUUGCAUGGAGUUUAUCAUG [G58U A60G A137C] | ≤ -4.2
GGAUCUUCUCGAUCUAACAAAAAAGACAAAUCUGCCACAAAGCUUGAGAGCAUCUUCUGAUGCAGAGGCGGCCGCCUUCGGUGGGGCGAUAGCGCCAACGUUCUCAACUAUGACACGCAAAAAGCGUGCUCCGUCGAAUGGAGUUUAUCAUG [G58U A73C C85G C123A U135C] | ≤ -4.2
GGAUCUUCUCGAUCUAACAAAAAAGACAAAUCUGCCACAAAGCUUGAGAGCAUCUUCCGAUGCAGAGGCGGCAGCCUUCGGUGGCUCUAUAGCGCCAACGUUCUCAACAAUGACACGCAAAACGCGUGCUCCGUUGAAUGGAGUUUAUCAUG [G58C G86U G88U U109A] | ≤ -4.2
GGAUCUUCUCGAUCUAACAAAAAAGACAAAUCUGCCACAAAGCUUGAGAGCAUCUUCUGAUGCAGAGGCGGCAGCCUUCGGUGGCGCGAUCGCGCCAUCGUUGUCAACUAUGACACGCAAAACGCGUGCUUCGUUGAAUGGAGUUUAUCAUG [G58U A91C A98U C103G C131U] | ≤ -4.2
GGAUCUUCUCGAUCUAACAAAAAAGACAAAUCUGCCACAAAGCUUGAGAGCAUCUUCUGAUGCAGAGGCGGCAGGCUUCGGUGGCGUGAUAGUGCCAACGUUCUCAACUAUGACACGCAAAACGCGUGCUCCGUUGAAUGGAGUUUAUCAUG [G58U C75G C87U C93U] | ≤ -4.2
GGAUCUUCUCGAUCUAACAAAAAAGACAAAUCUGCCACAAAGCUUGAGAGCAUCUUCUGAUGCAGAGGCGGCAGCCUUCGGUGGCGCGAUAGCGCCAACGUUCUCAACUAUGACACGCAAAACGUGUGCUCCGUUGAAUGGCGUUUAUCCUG [G58U C125U A142C A150C] | ≤ -4.2
GGAUCUUCUCGAUCUAACAAAAAAGACAAAUCUGCCACAAAGCUUGAGAGCAUCUUCUGGUGCAGAGGCGGCAGCCUUCGGUGGCGCGAUAGCGCCAACGUUCUCAACUAUGACACGCAAAACGCGUGCUCCGUUGAAUGGAGUUUAUCAUG [G58U A60G] | 0.208
GGAUCUUCUCGAUCUAACAAAAAAGACAAAUCUGCCACAAAGCUUGAGAGCAUCUUCUGAUGCAGAGGCGGCAGCAUUCGGUGGCGCGUUUGCGCCAACGUUCUCACCUAUGACACGCAAAACGCGUGCUCCGAUGAAUGAAGUUUAUCAUG [G58U C76A A89U A91U A107C U134A G141A] | ≤ -4.2
GGAUCUUCUCGAUCUAACAAAAAAGACAAAUCUGCCACAAAGCUUGAGAGCAUCUUCUGAUGCAGAGGCGGCAGCCUUCGGUGGCGCGAUAGCGCCAACGUUCUCAACUAUGACACGCAAAACGCGUGCUCUGUUGAAUGCAGUUUAUCAUG [G58U C132U G141C] | ≤ -4.2
GGAUCUUCUCGAUCUAACAAAAAAGACAAAUCUGCCACAAAGCUUGAGAGCAUCUUCCGAUGCAGAGGCGGCAGCCUUCGGAGGCGCGAUAGCGACAACGUUCUCAACUAUGACAUGCAAAACGCGUGCUGCGUUGAAUGGAGUUUAUCAUG [G58C U82A C95A C116U C131G] | ≤ -4.2
GGAUCUUCUCGAUCUAACAAAAAAGACAAAUCUGCCACAAAGCUUGAGAGCAUCUUCCGAUGCAGAGGCGGCAGCCUUCGGUGGCGCAAUAGCGCAAACGUUCUCAACUAUGACACGCAAAACGCGUGCUCCGUUGAAUGGAUUUUAUCAUG [G58C G88A C96A G143U] | ≤ -4.2
GGAUCUUCUCGAUCUAACAAAAAAGACAAAUCUGCCACAAAGCUUGAGAGCAUCUUCUGAUGCAGAGGCGGCAGCCUUCGGUGGCGCGAUAGCGCCAACGUUCUUGACUAUGACACGCAAAACGCGUGCUCCGUUGAAUGGAGUUUAUUAUG [G58U C105U A106G C149U] | 0.147
GGAUCUUCUCGAUCUAACAAAAAAGACAAAUCUGCCACAAAGCUUGAGAGCAUCUUCUGAUGCAGAGGCGGCAGCCUUCGGUGGCGCGUUAGCGCCAAAGUUCUGAACUAUGACACGCAAAACGCGUGCUCCGUUGAAUGCAGUUUAUCAUG [G58U A89U C99A C105G G141C] | ≤ -4.2
